B1: hT4VL.FRv40480 (antibody, human IgG1, kappa)
heavy: EVQLVESGGGLVQPGGSLRLSCAASGYTFTSYVMHWVRQAPGKGLEWVSAINPYNDGNYYADSVKGRFTISRDNSRKTLYLQMNSLRAEDTAVYYCARGAYKRGYAMDYWGQGTTVTVSSASTKGPSVFPLAPSSKSTSGGTAALGCLVKDYFPEPVTVSWNSGALTSGVHTFPAVLQSSGLYSLSSVVTVPSSSLGTQTYICNVNHKPSNTKVDKKV[human IgG1 Fc not given here]GSGGGSVTGYRLFEEIL
light: DLVMTQSPSSLSASVGDRVTITCKSSQSLFNSKTSKNYLAWYQQKPGKAPKLLIYWASTRESGVPARFSGSGSGTDFTLTISSLEPEDFAVYYCQQYYYHMYTFGQGTKVEIKRTVAAPSVFIFPPSDEQLKSGTASVVCLLNNFYPREAKVQWKVDNALQSGNSQESVTEQDSKDSTYSLSSTLTLSKADYEKHKVYACEVTHQGLSSPVTKSFNRGEC
B2: hT4VL.FRv40481 (antibody, human IgG1, kappa)
heavy: EVQLVESGGGLVQPGGSLRLSCAASGYTFTSYVMHWVRQAPGKGLEWVSAINPYNDGNYYADSVKGRFTISRDNSRKTLYLQMNSLRAEDTAVYYCARGAYKRGYAMDYWGQGTTVTVSSASTKGPSVFPLAPSSKSTSGGTAALGCLVKDYFPEPVTVSWNSGALTSGVHTFPAVLQSSGLYSLSSVVTVPSSSLGTQTYICNVNHKPSNTKVDKKV[human IgG1 Fc not given here]GSGGGSVTGYRLFEEIL
light: DLVMTQSPSSLSASVGDRVTITCNSSQSLFNSKTRKNYLAWYQQKPGKAPKLLIYWASTRESGVPARFSGSGSGTDFTLTISSLEPEDFAVYYCQQYYYHMYTFGQGTKVEIKRTVAAPSVFIFPPSDEQLKSGTASVVCLLNNFYPREAKVQWKVDNALQSGNSQESVTEQDSKDSTYSLSSTLTLSKADYEKHKVYACEVTHQGLSSPVTKSFNRGEC
B3: hT4VL.FRv40482 (antibody, human IgG1, kappa)
heavy: EVQLVESGGGLVQPGGSLRLSCAASGYTFTSYVMHWVRQAPGKGLEWVSAINPYNDGNYYADSVKGRFTISRDNSRKTLYLQMNSLRAEDTAVYYCARGAYKRGYAMDYWGQGTTVTVSSASTKGPSVFPLAPSSKSTSGGTAALGCLVKDYFPEPVTVSWNSGALTSGVHTFPAVLQSSGLYSLSSVVTVPSSSLGTQTYICNVNHKPSNTKVDKKV[human IgG1 Fc not given here]GSGGGSVTGYRLFEEIL
light: DLVMTQSPSSLSASVGDRVTITCNSSQSLFDSRTRKNYLAWYQQKPGKAPKLLIYWASTRESGVPARFSGSGSGTDFTLTISSLEPEDFAVYYCQQYYYHMYTFGQGTKVEIKRTVAAPSVFIFPPSDEQLKSGTASVVCLLNNFYPREAKVQWKVDNALQSGNSQESVTEQDSKDSTYSLSSTLTLSKADYEKHKVYACEVTHQGLSSPVTKSFNRGEC
B4: hT4VL.FRv40483 (antibody, human IgG1, kappa)
heavy: EVQLVESGGGLVQPGGSLRLSCAASGYTFTSYVMHWVRQAPGKGLEWVSAINPYNDGNYYADSVKGRFTISRDNSRKTLYLQMNSLRAEDTAVYYCARGAYKRGYAMDYWGQGTTVTVSSASTKGPSVFPLAPSSKSTSGGTAALGCLVKDYFPEPVTVSWNSGALTSGVHTFPAVLQSSGLYSLSSVVTVPSSSLGTQTYICNVNHKPSNTKVDKKV[human IgG1 Fc not given here]GSGGGSVTGYRLFEEIL
light: DLVMTQSPSSLSASVGDRVTITCKSSQSLFDSRDRKNYLAWYQQKPGKAPKLLIYWASTRESGVPARFSGSGSGTDFTLTISSLEPEDFAVYYCQQYYYHMYTFGQGTKVEIKRTVAAPSVFIFPPSDEQLKSGTASVVCLLNNFYPREAKVQWKVDNALQSGNSQESVTEQDSKDSTYSLSSTLTLSKADYEKHKVYACEVTHQGLSSPVTKSFNRGEC
B5: hT4VL.FRv40408 (antibody, human IgG1, kappa)
heavy: EVQLVESGGGLVQPGGSLRLSCAASGYTFTSYVMHWVRQAPGKGLEWVSAINPYNDGNYYADSVKGRFTISRDNSRKTLYLQMNSLRAEDTAVYYCARGAYKRGYAMDYWGQGTTVTVSSASTKGPSVFPLAPSSKSTSGGTAALGCLVKDYFPEPVTVSWNSGALTSGVHTFPAVLQSSGLYSLSSVVTVPSSSLGTQTYICNVNHKPSNTKVDKKV[human IgG1 Fc not given here]GSGGGSVTGYRLFEEIL
light: DLVMTQSPSSLSASVGDRVTITCKSSQSLFNSRTRKNYLAWYQQKPGKAPKLLIYWASTRESGVPARFSGSGSGTDFTLTISSLEPEDFAVYYCQQYYYQMYTFGQGTKVEIKRTVAAPSVFIFPPSDEQLKSGTASVVCLLNNFYPREAKVQWKVDNALQSGNSQESVTEQDSKDSTYSLSSTLTLSKADYEKHKVYACEVTHQGLSSPVTKSFNRGEC
B6: hT4VL.FRv40416 (antibody, human IgG1, kappa)
heavy: EVQLVESGGGLVQPGGSLRLSCAASGYTFTSYVMHWVRQAPGKGLEWVSAINPYNDGNYYADSVKGRFTISRDNSRKTLYLQMNSLRAEDTAVYYCARGAYKRGYAMDYWGQGTTVTVSSASTKGPSVFPLAPSSKSTSGGTAALGCLVKDYFPEPVTVSWNSGALTSGVHTFPAVLQSSGLYSLSSVVTVPSSSLGTQTYICNVNHKPSNTKVDKKV[human IgG1 Fc not given here]GSGGGSVTGYRLFEEIL
light: DLVMTQSPSSLSASVGDRVTITCKSSQSLFNSRTRKNYLAWYQQKPGKAPKLLIYWASTRESGVPARFSGSGSGTDFTLTISSLEPEDFAVYYCQQYYYHDYTFGQGTKVEIKRTVAAPSVFIFPPSDEQLKSGTASVVCLLNNFYPREAKVQWKVDNALQSGNSQESVTEQDSKDSTYSLSSTLTLSKADYEKHKVYACEVTHQGLSSPVTKSFNRGEC
B7: hT4VL.FRv40424 (antibody, human IgG1, kappa)
heavy: EVQLVESGGGLVQPGGSLRLSCAASGYTFTSYVMHWVRQAPGKGLEWVSAINPYNDGNYYADSVKGRFTISRDNSRKTLYLQMNSLRAEDTAVYYCARGAYKRGYAMDYWGQGTTVTVSSASTKGPSVFPLAPSSKSTSGGTAALGCLVKDYFPEPVTVSWNSGALTSGVHTFPAVLQSSGLYSLSSVVTVPSSSLGTQTYICNVNHKPSNTKVDKKV[human IgG1 Fc not given here]GSGGGSVTGYRLFEEIL
light: DLVMTQSPSSLSASVGDRVTITCKSSQSLFNSRTRKNYLAWYQQKPGKAPKLLIYWASTRESGVPARFSGSGSGTDFTLTISSLEPEDFAVYYCQQYYYHNYTFGQGTKVEIKRTVAAPSVFIFPPSDEQLKSGTASVVCLLNNFYPREAKVQWKVDNALQSGNSQESVTEQDSKDSTYSLSSTLTLSKADYEKHKVYACEVTHQGLSSPVTKSFNRGEC
B8: hT4VL.FRv40425 (antibody, human IgG1, kappa)
heavy: EVQLVESGGGLVQPGGSLRLSCAASGYTFTSYVMHWVRQAPGKGLEWVSAINPYNDGNYYADSVKGRFTISRDNSRKTLYLQMNSLRAEDTAVYYCARGAYKRGYAMDYWGQGTTVTVSSASTKGPSVFPLAPSSKSTSGGTAALGCLVKDYFPEPVTVSWNSGALTSGVHTFPAVLQSSGLYSLSSVVTVPSSSLGTQTYICNVNHKPSNTKVDKKV[human IgG1 Fc not given here]GSGGGSVTGYRLFEEIL
light: DLVMTQSPSSLSASVGDRVTITCKSSQSLFNSRTRKNYLAWYQQKPGKAPKLLIYWASTRESGVPARFSGSGSGTDFTLTISSLEPEDFAVYYCQQYYYHPYTFGQGTKVEIKRTVAAPSVFIFPPSDEQLKSGTASVVCLLNNFYPREAKVQWKVDNALQSGNSQESVTEQDSKDSTYSLSSTLTLSKADYEKHKVYACEVTHQGLSSPVTKSFNRGEC
B9: hT4VL.FRv40435 (antibody, human IgG1, kappa)
heavy: EVQLVESGGGLVQPGGSLRLSCAASGYTFTSYVMHWVRQAPGKGLEWVSAINPYNDGNYYADSVKGRFTISRDNSRKTLYLQMNSLRAEDTAVYYCARGAYKRGYAMDYWGQGTTVTVSSASTKGPSVFPLAPSSKSTSGGTAALGCLVKDYFPEPVTVSWNSGALTSGVHTFPAVLQSSGLYSLSSVVTVPSSSLGTQTYICNVNHKPSNTKVDKKV[human IgG1 Fc not given here]GSGGGSVTGYRLFEEIL
light: DLVMTQSPSSLSASVGDRVTITCKSSQSLFNSRTRKNYLAWYQQKPGKAPKLLIYWASTRESGVPARFSGSGSGTDFTLTISSLEPEDFAVYYCQQYYYHMETFGQGTKVEIKRTVAAPSVFIFPPSDEQLKSGTASVVCLLNNFYPREAKVQWKVDNALQSGNSQESVTEQDSKDSTYSLSSTLTLSKADYEKHKVYACEVTHQGLSSPVTKSFNRGEC
B10: hT4VL.FRv40444 (antibody, human IgG1, kappa)
heavy: EVQLVESGGGLVQPGGSLRLSCAASGYTFTSYVMHWVRQAPGKGLEWVSAINPYNDGNYYADSVKGRFTISRDNSRKTLYLQMNSLRAEDTAVYYCARGAYKRGYAMDYWGQGTTVTVSSASTKGPSVFPLAPSSKSTSGGTAALGCLVKDYFPEPVTVSWNSGALTSGVHTFPAVLQSSGLYSLSSVVTVPSSSLGTQTYICNVNHKPSNTKVDKKV[human IgG1 Fc not given here]GSGGGSVTGYRLFEEIL
light: DLVMTQSPSSLSASVGDRVTITCKSSQSLFNSRTRKNYLAWYQQKPGKAPKLLIYWASTRESGVPARFSGSGSGTDFTLTISSLEPEDFAVYYCQQYYYHMPTFGQGTKVEIKRTVAAPSVFIFPPSDEQLKSGTASVVCLLNNFYPREAKVQWKVDNALQSGNSQESVTEQDSKDSTYSLSSTLTLSKADYEKHKVYACEVTHQGLSSPVTKSFNRGEC
B11: hT4VL.FRv40128 (antibody, human IgG1, kappa)
heavy: EVQLVESGGGLVQPGGSLRLSCAASGYTFTSYVMHWVRQAPGKGLEWVSAINPYNDGNYYADSVKGRFTISRDNSRKTLYLQMNSLRAEDTAVYYCARGAYKRGYAMDYWGQGTTVTVSSASTKGPSVFPLAPSSKSTSGGTAALGCLVKDYFPEPVTVSWNSGALTSGVHTFPAVLQSSGLYSLSSVVTVPSSSLGTQTYICNVNHKPSNTKVDKKV[human IgG1 Fc not given here]GSGGGSVTGYRLFEEIL
light: DLVMTQSPSSLSASVGDRVTITCKSSQSLFDSRTRKNYLAWYQQKPGKAPKLLIYWASTRESGVPARFSGSGSGTDFTLTISSLEPEDFAVYYCQQYYYHMYTFGQGTKVEIKRTVAAPSVFIFPPSDEQLKSGTASVVCLLNNFYPREAKVQWKVDNALQSGNSQESVTEQDSKDSTYSLSSTLTLSKADYEKHKVYACEVTHQGLSSPVTKSFNRGEC

What follows are binders tested against ECM (extracellular matrix) (assay: ECL plate assay on coated ECM (Matrigel)).
For B1, the ECM binding vs Control Ab (pH 5.8) (fold vs Control Ab) was 42.5 and the ECM binding vs Control Ab (pH 7.4) (fold vs Control Ab) was 3.38.
With B2 the ECM binding vs Control Ab (pH 5.8) (fold vs Control Ab) was 73.8 and the ECM binding vs Control Ab (pH 7.4) (fold vs Control Ab) was 6.21.
B3 was tested, and the ECM binding vs Control Ab (pH 5.8) (fold vs Control Ab) was 22.1 and the ECM binding vs Control Ab (pH 7.4) (fold vs Control Ab) was 2.83.
Binder B4 has an ECM binding vs Control Ab (pH 5.8) (fold vs Control Ab) of 11.1 and an ECM binding vs Control Ab (pH 7.4) (fold vs Control Ab) of 2.11.

Target: ECM (extracellular matrix)
Assay: ECL plate assay on coated ECM (Matrigel)
Remark: another data set of the same source
B5 was tested, and the ECM binding vs Control Ab (pH 5.8) (fold vs Control Ab) was 93.8 and the ECM binding vs Control Ab (pH 7.4) (fold vs Control Ab) was 15.9.
In the case of B6, the ECM binding vs Control Ab (pH 5.8) (fold vs Control Ab) is reported as 95.9 and the ECM binding vs Control Ab (pH 7.4) (fold vs Control Ab) is reported as 10.4.
B7 was tested, and the ECM binding vs Control Ab (pH 5.8) (fold vs Control Ab) was 98.2 and the ECM binding vs Control Ab (pH 7.4) (fold vs Control Ab) was 11.
With B8 the ECM binding vs Control Ab (pH 5.8) (fold vs Control Ab) was 98.5 and the ECM binding vs Control Ab (pH 7.4) (fold vs Control Ab) was 12.1.
For B9, the ECM binding vs Control Ab (pH 5.8) (fold vs Control Ab) was 97.8 and the ECM binding vs Control Ab (pH 7.4) (fold vs Control Ab) was 15.
With B10 the ECM binding vs Control Ab (pH 5.8) (fold vs Control Ab) was 96.4 and the ECM binding vs Control Ab (pH 7.4) (fold vs Control Ab) was 14.9.
B11 showed an ECM binding vs Control Ab (pH 5.8) (fold vs Control Ab) of 36.3 and an ECM binding vs Control Ab (pH 7.4) (fold vs Control Ab) of 4.7.

Reference: patent publication US20240124614A1
